{"source": "the RNAGym collection of RNA variant scans (doi:10.7554/elife.90254)", "parents": {"B1": {"name": "LINE1-mini (parent)", "chain": "GGCAGAGCUCAACACAGCGUGGCAAAGUGGCUGUGGCUAGACUGCC"}}, "note": "The source gives no read counts; variants with many changes may rest on few reads.", "data": [{"variants_of": "B1", "experiment": "self-cleavage, relative activity (ratio to wild type); higher = more cleavage; in vitro, sequencing; the parent is a self-cleaving ribozyme", "values": [{"variant": "A12G A14G U43G", "self-cleavage": 0}, {"variant": "A12G A14U A26C", "self-cleavage": 0.02}, {"variant": "A12G A14U C15G G21C C31U U32C", "self-cleavage": 0.03}, {"variant": "A12G A14U C15U", "self-cleavage": 0.04}, {"variant": "A12G A14U C23G A26U G27C", "self-cleavage": 0.04}, {"variant": "A12G A14U U32A", "self-cleavage": 0.1}, {"variant": "A12G A16C C18A G22U U38C C45G", "self-cleavage": 0}, {"variant": "A12G A16C C42G", "self-cleavage": 0.28}, {"variant": "A12G A16C G19A", "self-cleavage": 0.02}, {"variant": "A12G A16C G36U", "self-cleavage": 0.01}, {"variant": "A12G A16C U28A C46U", "self-cleavage": 0.04}, {"variant": "A12G A16G C18U", "self-cleavage": 0.01}, {"variant": "A12G A16G C23A G33U", "self-cleavage": 0.03}, {"variant": "A12G A16G C45U", "self-cleavage": 0.01}, {"variant": "A12G A16G U34C", "self-cleavage": 0.01}, {"variant": "A12G A16U C18A A24G A41C C45U", "self-cleavage": 0.02}, {"variant": "A12G A16U C23A G33U C45U", "self-cleavage": 0.04}, {"variant": "A12G A16U G27A G33A", "self-cleavage": 0.08}, {"variant": "A12G A16U G33U C45A", "self-cleavage": 0.02}, {"variant": "A12G A16U U20C G21A G44C", "self-cleavage": 0.02}, {"variant": "A12G A24C C31U G33C G35C G44A", "self-cleavage": 0.37}, {"variant": "A12G A24C G29A G33A", "self-cleavage": 0.01}, {"variant": "A12G A24C G33U U34C C46A", "self-cleavage": 0.01}, {"variant": "A12G A24G G30U A39C C46U", "self-cleavage": 0.02}, {"variant": "A12G A24U G36U", "self-cleavage": 0.03}, {"variant": "A12G A25G A39G", "self-cleavage": 0.01}, {"variant": "A12G A25G A41C", "self-cleavage": 0.02}, {"variant": "A12G A25U G27C C37G A39G", "self-cleavage": 0.05}, {"variant": "A12G A25U G35C G36U C42A", "self-cleavage": 0.03}, {"variant": "A12G A25U G36U G44U", "self-cleavage": 0.01}, {"variant": "A12G A26C U34C", "self-cleavage": 0.02}, {"variant": "A12G A26G C31U", "self-cleavage": 0}, {"variant": "A12G A39C C46G", "self-cleavage": 0.02}, {"variant": "A12G A39U G40C G44C", "self-cleavage": 0}, {"variant": "A12G A41U U43C", "self-cleavage": 0.03}, {"variant": "A12G C13A A14C U28C", "self-cleavage": 0.01}, {"variant": "A12G C13A A25C U28C", "self-cleavage": 0.02}, {"variant": "A12G C13A C15U G17U G27C", "self-cleavage": 0.02}, {"variant": "A12G C13A G19A", "self-cleavage": 0.07}, {"variant": "A12G C13A U20A", "self-cleavage": 0.01}, {"variant": "A12G C13G C46A", "self-cleavage": 0.01}, {"variant": "A12G C13G G19A G36U", "self-cleavage": 0.06}, {"variant": "A12G C13G G27U", "self-cleavage": 0.12}, {"variant": "A12G C13G G29C C37A", "self-cleavage": 0.05}, {"variant": "A12G C13U C15A G19U U20A U28A U43A G44C C45U", "self-cleavage": 0.01}, {"variant": "A12G C13U G17A G35A C37U", "self-cleavage": 0.01}, {"variant": "A12G C13U G27A C37A U43C", "self-cleavage": 0.08}, {"variant": "A12G C13U U38G G40U C45U", "self-cleavage": 0.02}, {"variant": "A12G C15A C18A", "self-cleavage": 0.03}, {"variant": "A12G C15A C18G A24C G36C", "self-cleavage": 0.11}, {"variant": "A12G C15A G21U U32A", "self-cleavage": 0.03}, {"variant": "A12G C15A G30U G35U", "self-cleavage": 0.03}, {"variant": "A12G C15A U32C", "self-cleavage": 0.03}, {"variant": "A12G C15G A16U G17A G36U", "self-cleavage": 0.16}, {"variant": "A12G C15G G44A", "self-cleavage": 0}, {"variant": "A12G C15U A26U G36A", "self-cleavage": 0.06}, {"variant": "A12G C15U C18A A24G", "self-cleavage": 0.01}, {"variant": "A12G C15U G17C C31A", "self-cleavage": 0.09}, {"variant": "A12G C15U G17U A24G", "self-cleavage": 0.01}, {"variant": "A12G C15U G29C", "self-cleavage": 0.04}, {"variant": "A12G C15U U28A G36A C45U", "self-cleavage": 0.02}, {"variant": "A12G C15U U38G G44U", "self-cleavage": 0.06}, {"variant": "A12G C18A A25G G27A G36A", "self-cleavage": 0.03}, {"variant": "A12G C18A A25U A41C", "self-cleavage": 0.01}, {"variant": "A12G C18A A26G G27C U38G", "self-cleavage": 0}, {"variant": "A12G C18A C23U U28A", "self-cleavage": 0.01}, {"variant": "A12G C18A C37U", "self-cleavage": 0.07}, {"variant": "A12G C18A C45U", "self-cleavage": 0.06}, {"variant": "A12G C18A C46A", "self-cleavage": 0.03}, {"variant": "A12G C18A G30U", "self-cleavage": 0.08}, {"variant": "A12G C18A G36A C45A", "self-cleavage": 0.01}, {"variant": "A12G C18G G19U C23U A26U", "self-cleavage": 0.02}, {"variant": "A12G C18G G29C", "self-cleavage": 0.04}, {"variant": "A12G C18G G33U", "self-cleavage": 0}, {"variant": "A12G C18U A24G", "self-cleavage": 0.03}, {"variant": "A12G C18U G21A", "self-cleavage": 0.01}, {"variant": "A12G C18U U20G A26G C37U", "self-cleavage": 0.05}, {"variant": "A12G C23A G29U U38A", "self-cleavage": 0}, {"variant": "A12G C23G A26G", "self-cleavage": 0}, {"variant": "A12G C23G G36A U38C G44C", "self-cleavage": 0.02}, {"variant": "A12G C23G G40U", "self-cleavage": 0}, {"variant": "A12G C23U C42G", "self-cleavage": 0.01}, {"variant": "A12G C23U G27U", "self-cleavage": 0.01}]}]}
